This is an account of results in publication PMC4081100.

Only a part is listed here, and it is no random draw. For part of these data: At the low end of the ranking the order means little. Some of the results follow. For part of these data: The exact form of the protein is not confirmed.

Holding throughout (assay): universal protein binding microarray (PBM)
Holding throughout (settings): transcription factors of Arabidopsis thaliana; high values mean tight binding; most listed sequences are background and not binding sites; double strand, one strand shown

The target of assay [1] is T1, GST-ANAC092(1-176) (UniProt Q9FKA0).
T1 sequence: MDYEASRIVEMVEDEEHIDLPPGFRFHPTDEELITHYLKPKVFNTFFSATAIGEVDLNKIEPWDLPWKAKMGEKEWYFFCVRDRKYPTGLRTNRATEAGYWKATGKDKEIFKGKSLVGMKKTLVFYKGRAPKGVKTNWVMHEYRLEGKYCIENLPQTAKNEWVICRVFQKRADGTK

The target of assay [2] is GST-NTL6(1-168) (UniProt Q9SCK6).
For assay [3], the target named is T2, GST-ANAC019 NAC domain (UniProt Q9C932).
T2 sequence: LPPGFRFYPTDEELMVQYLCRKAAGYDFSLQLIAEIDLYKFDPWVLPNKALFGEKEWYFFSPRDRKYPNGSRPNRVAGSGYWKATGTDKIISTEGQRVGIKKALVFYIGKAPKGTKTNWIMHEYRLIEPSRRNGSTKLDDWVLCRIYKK

Assay [4] concerns the target T3, GST-ANAC055(1-171) (UniProt Q9LDY8).
T3 sequence: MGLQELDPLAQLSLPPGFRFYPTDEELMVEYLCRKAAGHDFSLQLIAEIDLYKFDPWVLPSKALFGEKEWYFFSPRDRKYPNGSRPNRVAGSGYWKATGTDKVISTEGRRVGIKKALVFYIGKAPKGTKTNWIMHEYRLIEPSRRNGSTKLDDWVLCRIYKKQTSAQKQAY

For assay [5], the target named is T4, GST-ATAF1 NAC domain (UniProt Q39013).
T4 sequence: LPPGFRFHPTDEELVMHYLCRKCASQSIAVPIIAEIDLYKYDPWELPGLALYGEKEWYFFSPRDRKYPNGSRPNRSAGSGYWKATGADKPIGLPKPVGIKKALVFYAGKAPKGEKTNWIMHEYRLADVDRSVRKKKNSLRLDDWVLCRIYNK

Assay [6] deals with T5, GST-ANAC092(1-285) full length (UniProt Q9FKA0).
T5 sequence: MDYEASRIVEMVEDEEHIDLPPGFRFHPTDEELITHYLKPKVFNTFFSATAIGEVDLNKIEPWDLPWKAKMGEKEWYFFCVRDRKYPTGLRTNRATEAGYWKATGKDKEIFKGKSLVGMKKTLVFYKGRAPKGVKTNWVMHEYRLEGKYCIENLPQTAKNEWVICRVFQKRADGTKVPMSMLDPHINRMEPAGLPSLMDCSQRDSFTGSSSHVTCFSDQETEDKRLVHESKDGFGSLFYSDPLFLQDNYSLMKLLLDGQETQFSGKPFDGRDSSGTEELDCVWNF

Assay [7] concerns the target T6, GST-NAP(1-166) (UniProt O49255).
T6 sequence: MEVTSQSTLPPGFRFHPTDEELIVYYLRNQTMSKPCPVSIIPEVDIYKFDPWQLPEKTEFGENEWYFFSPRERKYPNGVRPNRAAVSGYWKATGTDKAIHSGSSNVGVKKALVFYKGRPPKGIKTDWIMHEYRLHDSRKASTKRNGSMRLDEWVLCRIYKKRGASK

In assay [8] the target is T7, GST-NST2(1-184) (UniProt Q9M274).
T7 sequence: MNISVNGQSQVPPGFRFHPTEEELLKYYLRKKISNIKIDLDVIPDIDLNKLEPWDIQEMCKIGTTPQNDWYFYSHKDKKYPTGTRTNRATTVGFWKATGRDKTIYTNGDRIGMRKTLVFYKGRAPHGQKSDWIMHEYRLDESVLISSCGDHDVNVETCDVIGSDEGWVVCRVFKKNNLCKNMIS

For assay [9], the target named is T8, GST-NTL8 NAC domain (UniProt Q9XIN7).
T8 sequence: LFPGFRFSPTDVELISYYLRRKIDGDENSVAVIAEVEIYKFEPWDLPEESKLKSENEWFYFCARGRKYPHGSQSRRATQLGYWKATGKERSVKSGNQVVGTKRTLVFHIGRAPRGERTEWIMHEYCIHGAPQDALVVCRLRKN

Assay [10] concerns the target T9, GST-SND1(1-203) (UniProt Q9LPI7).
T9 sequence: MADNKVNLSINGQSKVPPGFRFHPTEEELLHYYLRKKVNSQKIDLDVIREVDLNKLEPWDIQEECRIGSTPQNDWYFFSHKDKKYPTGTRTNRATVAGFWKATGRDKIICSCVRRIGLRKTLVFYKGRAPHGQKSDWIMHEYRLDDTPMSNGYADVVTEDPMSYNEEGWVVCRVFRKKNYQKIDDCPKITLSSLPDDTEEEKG

For assay [11], the target named is T10, GST-VND3 NAC domain (UniProt Q9FH59).
T10 sequence: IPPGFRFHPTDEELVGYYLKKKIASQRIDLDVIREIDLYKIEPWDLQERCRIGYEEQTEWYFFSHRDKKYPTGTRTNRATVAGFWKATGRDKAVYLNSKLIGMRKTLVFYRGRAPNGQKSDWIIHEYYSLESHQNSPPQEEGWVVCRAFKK

Assay [12] has as its target T11, GST-VND7 NAC domain (UniProt Q9C8W9).
T11 sequence: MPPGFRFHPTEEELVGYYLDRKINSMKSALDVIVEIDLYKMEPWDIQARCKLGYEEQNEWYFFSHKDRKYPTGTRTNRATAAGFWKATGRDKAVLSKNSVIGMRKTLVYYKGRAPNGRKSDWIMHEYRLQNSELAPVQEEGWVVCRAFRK

Assay [13] has as its target T12, GST-VOZ2 (Arabidopsis thaliana) (UniProt Q9SLB9).
T12 sequence: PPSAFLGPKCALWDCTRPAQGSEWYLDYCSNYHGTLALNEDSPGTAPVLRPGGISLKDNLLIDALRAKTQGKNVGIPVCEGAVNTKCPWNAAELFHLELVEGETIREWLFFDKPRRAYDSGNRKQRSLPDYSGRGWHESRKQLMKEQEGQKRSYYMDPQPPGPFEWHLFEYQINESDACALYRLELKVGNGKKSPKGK

Assay [14] addresses GST-WRKY1(266-371) (UniProt Q9SI37).

With CTGACCAA, the binding signal was -0.0802 E-score in assay [1]; -0.0481 E-score in assay [2]; 0.00376 E-score in assay [3]; -0.0282 E-score in [4]; 0.0192 E-score in assay [5]; -0.0851 E-score in assay [6]. Further, the binding signal in assay [7] was -0.151 E-score; in [8] it was -0.0464 E-score; in [9], -0.0782 E-score; in assay [10], -0.118 E-score; in assay [11], -0.0124 E-score; in [12], -0.0774 E-score. Besides, the values for the binding signal in [13] and in assay [14] were 0.0163 E-score and 0.427 E-score, respectively.

As to ACCTTGAC, the binding signal in [1] was -0.142 E-score; in assay [2] it was -0.0752 E-score; in [3], 0.013 E-score; in [4], -0.0995 E-score; in assay [5], -0.102 E-score; in assay [6], 0.0121 E-score. Besides, the binding signal is -0.0564 E-score in assay [7]; -0.107 E-score in [8]; -0.0557 E-score in assay [9]; -0.0877 E-score in assay [10]; -0.0812 E-score in [11]; -0.0943 E-score in assay [12]. For the same sequence, the binding signal in assay [13] is -0.109 E-score; in [14], 0.472 E-score.

As for GTCAAGGA, the binding signal was -0.0355 E-score in assay [1]; -0.089 E-score in [2]; 0.0169 E-score in assay [3]; -0.12 E-score in assay [4]; -0.0867 E-score in [5]; -0.00417 E-score in assay [6]. Further, the binding signal is 0.027 E-score in assay [7]; -0.0707 E-score in assay [8]; -0.0126 E-score in assay [9]; -0.0649 E-score in assay [10]; -0.147 E-score in assay [11]; -0.136 E-score in [12]. Moreover, the results for the binding signal in assay [13] and in [14] were -0.166 E-score and 0.455 E-score, respectively.

As to TCGGGTCA, the binding signal was -0.0333 E-score in assay [1]; -0.13 E-score in assay [2]; -0.0407 E-score in assay [3]; -0.0604 E-score in assay [4]; -0.108 E-score in assay [5]; -0.00314 E-score in assay [6]. Besides, the binding signal was -0.0435 E-score in assay [7]; 0.0293 E-score in assay [8]; -0.0372 E-score in assay [9]; -0.0975 E-score in [10]; -0.149 E-score in assay [11]; -0.0943 E-score in assay [12]. Also, the binding signal in [13] is -0.0202 E-score; in [14] it was 0.434 E-score.

With CGGTCATA, the binding signal in assay [1] is -0.295 E-score; in assay [2], -0.168 E-score; in assay [3] it was -0.243 E-score; in [4], -0.143 E-score; in [5], -0.123 E-score; in [6], -0.0554 E-score. Besides, the binding signal was 0.00553 E-score in assay [7]; -0.155 E-score in [8]; -0.137 E-score in assay [9]; -0.0611 E-score in assay [10]; -0.0774 E-score in assay [11]; -0.231 E-score in assay [12]. Also, the binding signal in assay [13] was -0.158 E-score; in assay [14], 0.415 E-score.

For the sequence ATTGACCG, the binding signal is 0.00914 E-score in [1]; -0.124 E-score in assay [2]; -0.0649 E-score in assay [3]; -0.0265 E-score in assay [4]; -0.0867 E-score in assay [5]; -0.0919 E-score in [7]. The binding signal is -0.0768 E-score in assay [8]; -0.0573 E-score in assay [9]; 0.0249 E-score in [10]; -0.0767 E-score in assay [11]; -0.142 E-score in [12]; 0.0684 E-score in [13]. In assay [14], the binding signal was found to be 0.487 E-score.

For AGTCGGTC, the binding signal in [1] is -0.0812 E-score; in [2], -0.0934 E-score; in assay [3] it was -0.0594 E-score; in assay [4], -0.231 E-score; in [5], -0.21 E-score; in assay [6] it was -0.0561 E-score. Besides, the binding signal in assay [7] was -0.0599 E-score; in [8], -0.113 E-score; in assay [9] it was -0.0237 E-score; in assay [10] it was -0.0962 E-score; in assay [11], -0.121 E-score; in [12], -0.0858 E-score. In addition, the binding signal in assay [13] was -0.153 E-score; in assay [14] it was 0.403 E-score.

For GCACGGAA, the binding signal in assay [2] was 0.0332 E-score; in [5] it was 0.357 E-score; in assay [6] it was 0.413 E-score; in assay [9], 0.193 E-score; in assay [10] it was 0.156 E-score; in assay [11] it was 0.402 E-score. The binding signal in assay [12] was 0.453 E-score; in assay [13] it was -0.0447 E-score; in [14] it was 0.00131 E-score.

With GGTCAACC, the binding signal was -0.0992 E-score in [2]; -0.0325 E-score in assay [4]; -0.00538 E-score in assay [7]; -0.159 E-score in assay [8]; -0.0208 E-score in assay [9]; -0.122 E-score in assay [10]. Also, the binding signal in assay [11] is -0.0416 E-score; in [12] it was -0.0251 E-score; in assay [13], -0.0584 E-score; in assay [14], 0.491 E-score.

Take AGTCAATC: the binding signal in [1] was found to be 0.0925 E-score; in assay [2], 0.0768 E-score; in assay [4], 0.0374 E-score; in assay [9], 0.122 E-score; in assay [10] it was 0.0224 E-score; in assay [11], 0.0908 E-score. In addition, the results for the binding signal in [12], in assay [13] and in [14] were 0.039 E-score, -0.00285 E-score and 0.468 E-score, respectively.

As for AAAGTCAG, the binding signal in [1] was 0.1 E-score; in assay [2] it was -0.08 E-score; in assay [4], 0.0444 E-score; in [6] it was 0.0202 E-score; in [7], -0.176 E-score; in assay [9], -0.0594 E-score. In addition, the binding signal is -0.0765 E-score in [10]; -0.00045 E-score in assay [11]; -0.146 E-score in assay [12]; -0.0935 E-score in assay [13]; 0.461 E-score in [14].

Regarding AAGGAAGC, the binding signal in assay [3] is 0.0288 E-score; in assay [4], 0.0894 E-score; in [5], -0.0389 E-score; in assay [6], 0.13 E-score; in assay [7] it was 0.036 E-score; in [10], 0.175 E-score. Besides, the binding signal was -0.0874 E-score in [11], -0.0203 E-score in [12], -0.0141 E-score in assay [13] and -0.167 E-score in assay [14].

Regarding CTATTGAC, the binding signal in assay [1] is -0.0967 E-score; in assay [3], -0.0585 E-score; in assay [6], 0.0456 E-score; in [8], 0.00979 E-score; in assay [9], -0.0591 E-score; in assay [10] it was 0.0254 E-score. In addition, the binding signal amounted to 0.06 E-score in [11], 0.0402 E-score in [12], 0.00968 E-score in assay [13] and 0.451 E-score in [14].

For ACGTCTCT, the binding signal turned out to be 0.0939 E-score in [1]; 0.018 E-score in assay [2]; 0.381 E-score in assay [7]; 0.0152 E-score in assay [9]; 0.0793 E-score in assay [10]; 0.418 E-score in assay [11]. In addition, the binding signal is 0.442 E-score in [12], -0.0847 E-score in assay [13] and -0.0299 E-score in assay [14].
